The values below come from paper PMC12136788.

This is one part of the list.

First the molecules themselves.
T1: UNK ZnF1-3 (human, UniProt Q9C0B0 31-174)
T1 sequence: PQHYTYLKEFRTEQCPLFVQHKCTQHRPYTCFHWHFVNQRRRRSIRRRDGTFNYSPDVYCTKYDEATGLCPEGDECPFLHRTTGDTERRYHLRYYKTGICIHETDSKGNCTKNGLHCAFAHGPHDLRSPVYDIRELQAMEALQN

B1: chr7:90019433:90019434:+_ENSMUSG00000057706_ENSMUST00000082237|mus_hu|mus_mus_mus_hu_True|98_108 (ssRNA)
RNA: GGGAGUUCUACAGUCCGACGAUCAAAAAUACAGUGUUCUUUGCCAUUAAGGCCAUACUAAAAUAAAAAGAUUUAACCCAGCUACAAAAAAGUUCACUGAACUUAAAUUAAAAUACUUGUAAACAUCUUUGCAAUAUGAAAUAUCAACAGAGGAUUGAGCAUCA
B2: chr5:132216804:132216805:-_ENSG00000072364_ENST00000265343|hu_hu|motif|central (ssRNA)
RNA: GGGAGUUCUACAGUCCGACGAUCAGAUAUCAACUUGGCAUCCUGGCGAAGCCAGUGCAGUCCCUGCCGGGUAUAACGAACGGGAUCUGUCAUGAUGCUUGCAUUAAAGAUGAGAGGGCCCAUUACUUUAUCCAGUUCAGCAAACAACAGAGGAUUGAGCAUCA
B3: 4764777_4764897_1258_3pUTR_ENSG00000101265_ENST00000379400|human|control|control (ssRNA)
RNA: GGGAGUUCUACAGUCCGACGAUCUCCAGGUAGCAAAUGAUGGCUUGGCCGGAGCUGGGGAGGUUUGUGUCUAAAUGUUUCCAUGGAAAGAAAGUGCCUAGCUUCCUGGGGGUCUUAUGGGCAAUGGCGGUUCCUGGGGUGCCCCAACAGAGGAUUGAGCAUCA
B4: chr14:66974463:66974464:+_ENSMUSG00000022044_ENSMUST00000074523|mus_hu|mus_mus_mus_hu_False|8_48 (ssRNA)
RNA: GGGAGUUCUACAGUCCGACGAUCUUGUAGGACGACUUAUUCAGGGGAUCGGCCAGGAAGCAGGAGCAGAACAAGGACACCAGCGGGAGUUCCUUCAUCUUCUCUUUGUAGGCAGCAAGGGUCAUGUUGGCUGGAAUUGGUGGCCAACAGAGGAUUGAGCAUCA
B5: 76004303_76004423_11957_CDS_ENSMUSG00000022565_ENSMUST00000071869|mouse|control|control (ssRNA)
RNA: GGGAGUUCUACAGUCCGACGAUCGAUGGGGUCAAUGACAUAGCCGGUGGCUGCCUGUGCUUCCAGGAGCUCAAAGGCUGUCCCGGGGCGGAUGAUGCCCUUCUUCAUAGCCUGGUACACCGAGAGCCGUUCCUUGGUGGCAUCCAACAGAGGAUUGAGCAUCA
B6: chr14:89307221:89307222:+_ENSG00000165533_ENST00000346301|hu_mus|hu_hu_hu_mus_False|98_108 (ssRNA)
RNA: GGGAGUUCUACAGUCCGACGAUCUCCUGUCUGAUUAGUUCCAGGGAGCUUCAAAGAUGUGCCAGGGCGUGGGACCUGAGCAAUAGCAUUUUCAUCCAGGAUCAUUUCAGCAAUUCCUUCCUGGUCCACAUCAAUUUCAUCUAUCAACAGAGGAUUGAGCAUCA
B7: chr3:58389886:58389887:+_ENSMUSG00000075700_ENSMUST00000107924|mus_hu|FALSE|FALSE (ssRNA)
RNA: GGGAGUUCUACAGUCCGACGAUCCUUGCCAACAAUUAUUAAGCCUAUUAAUACUAGUUUGAAGACUGACAGGAAAGAUGCUAUGUGUCUAUAUAUUGGUUGAGGGAGGUAAUUCUCUCCUUCAAUGCGGAUGUCUGGGUACCGCAACAGAGGAUUGAGCAUCA
B8: 112745453_112760222_1176_CDS_ENSG00000108061_ENST00000369452|human|control|control (ssRNA)
RNA: GGGAGUUCUACAGUCCGACGAUCUGACAGUCUGUUAUAUCUCAGACCAAGACGACUUAAACUGGACAGGUUUCCUAUAGUAUCUGGGAGGUCUAGCAGUUCAUUGUGCUGCAAGUCAAGGUUGGUUAUCUGUGUACAGUUUCCCAACAGAGGAUUGAGCAUCA
B9: chr5:146773137:146773138:-_ENSG00000113657_ENST00000343218|hu_hu|FALSE|FALSE (ssRNA)
RNA: GGGAGUUCUACAGUCCGACGAUCCAUGGAAAUAACGUACGUCAUCAACACAAUAUACAACACCCCUUCCACUCACCUGACCCACCCACCUCCCUCCUACAUGCCCUACCCCAGCCCCUCUGCACCCUCCACCUUGCUCCAGGCCAACAGAGGAUUGAGCAUCA
B10: chr1:150795811:150795812:-_ENSG00000143437_ENST00000358595|hu_hu|FALSE|FALSE (ssRNA)
RNA: GGGAGUUCUACAGUCCGACGAUCCCAUUCUUGGUUCUUAGACCGGAACCGGAACAUGACAGACAGCACUUGGCCUUUUAAUUUCACUACCUGUUGGAAGCUGUCUCUUAGAAGCUGCUGGUCUUCAGGAUGACAGAAUUCUACCAACAGAGGAUUGAGCAUCA
B11: chr1:46159212:46159213:+_ENSG00000159596_ENST00000372025|hu_mus|hu_hu_hu_mus_True|18_58 (ssRNA)
RNA: GGGAGUUCUACAGUCCGACGAUCUCUGAUCCCUCCCAAGAAAGCUAGGAAACCGGCUCCAUAAGCCAUCUGAGUGAAAGCUAAUAUGGGGAUAUAAGACUUUGUUAUUACCAUGAGCAGUGGUGGAGCAGUAAAGGGGAUUAACAACAGAGGAUUGAGCAUCA
B12: chr6:36759938:36759939:-_ENSMUSG00000029838_ENSMUST00000101534|mus_hu|FALSE|FALSE (ssRNA)
RNA: GGGAGUUCUACAGUCCGACGAUCGAGCCUGCAUUUUUGAGUUGGAAACGUCCUCUCUGGCGCUCAGUCUGCCUUUGUUGCAAGGGGCGAGGUUGCUACCGCUGAGUCCAGGUACCCGGCUCGCUGCAGCUCCUGCUUGGGCCGCAACAGAGGAUUGAGCAUCA
B13: chr16:36023280:36023281:+_ENSMUSG00000022905_ENSMUST00000004054|mus_mus|motif|central (ssRNA)
RNA: GGGAGUUCUACAGUCCGACGAUCUGUCUGAAUAUCAUCCCCUGUGACAAUGUUUCCCACAGCCCGCAAAGCAGGAGAAACGGCUUUAUAGUCAUUAUGCAUCAGAAGUUCCACAAGCCUCCUGCAGACUCCUGCAUCGAUGACCAACAGAGGAUUGAGCAUCA
B14: chr1:181699228:181699229:-_ENSMUSG00000026491_ENSMUST00000027768|mus_mus|FALSE|FALSE (ssRNA)
RNA: GGGAGUUCUACAGUCCGACGAUCAAUUUUAGAUAAAACAUUGCUGAUGAACGUAGAUCGGGUUAACACUGUUCCAGUUAUAGCUUUCUUUGGAAAUGCCGAUAACGGUUUGGGUCUAGAAACUUCAUGAAAAACUGAGGAUGUCAACAGAGGAUUGAGCAUCA

The assay has as its target T1, UNK ZnF1-3. Description: nsRBNS (natural sequence RNA bind-n-seq); RBNS binding buffer (assumed for nsRBNS): 25 mM Tris pH 7.5, 150 mM KCl, 3 mM MgCl2, 0.01% Triton X-100, 500 ug/ml BSA, 20 U/ml SUPERase-In, 4 C; UNK is unkempt and MSI1 is Musashi-1; names of the RNAs are library labels; protein concentration not given here; high values mean tight binding.
For the molecule B1, the binding signal came to 1.78 enrichment R.

With B2, the binding signal was 1.05 enrichment R.

B3 came in with a binding signal of 1.28 enrichment R.

B4 returned a binding signal of 2.85 enrichment R.

As to B5, the binding signal is 0.908 enrichment R.

Turning to B6, the binding signal came out at 0.747 enrichment R.

Take B7: the binding signal is 1.26 enrichment R.

With B8, the binding signal worked out at 0.952 enrichment R.

Regarding B9, the binding signal is 1.44 enrichment R.

B10 gave a binding signal of 0.846 enrichment R.

In the case of B11, the binding signal was determined as 1.94 enrichment R.

Take B12: the binding signal came to 0.561 enrichment R.

In turn, B13 gave a binding signal of 1.21 enrichment R.

B14: the binding signal worked out at 1.03 enrichment R.
